Measured values taken from publication PMC9911399, “Two distinct binding modes provide the RNA-binding protein RbFox with extraordinary sequence specificity”.
Residue numbers refer to the chain shown, from its start. The list shows a part of the results.

T1: RBFOX1 RRM (Homo sapiens, UniProt Q9NWB1 109-208)
T1 sequence: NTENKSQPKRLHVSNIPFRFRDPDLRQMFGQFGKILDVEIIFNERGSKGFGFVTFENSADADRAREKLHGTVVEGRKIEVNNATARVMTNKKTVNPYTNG

B1: GGCGCGG (DNA:RNA)
RNA: GGGAGACCGGAAUUCAGAUUGUCCGGCGCGGUUAAAUCCCGUCGUAGCCACCA
DNA 1: CAATCTGAATTCCGGTCTCCC
DNA 2: TGGTGGCTACGACGGGATT
B2: GGGAGCC (DNA:RNA)
RNA: B1 RNA with C27G, G28A, C29G, G30C, G31C
DNA 1: CAATCTGAATTCCGGTCTCCC
DNA 2: TGGTGGCTACGACGGGATT
B3: GCUGUCU (DNA:RNA)
RNA: B1 RNA with G26C, C27U, C29U, G30C, G31U
DNA 1: CAATCTGAATTCCGGTCTCCC
DNA 2: TGGTGGCTACGACGGGATT
B4: CGCCAGU (DNA:RNA)
RNA: B1 RNA with G25C, G28C, C29A, G31U
DNA 1: CAATCTGAATTCCGGTCTCCC
DNA 2: TGGTGGCTACGACGGGATT
B5: AAUCUCC (DNA:RNA)
RNA: GGGAGACCGGAAUUCAGAUUGUCCAAUCUCCUUAAAUCCCGUCGUAGCCACCA
DNA 1: CAATCTGAATTCCGGTCTCCC
DNA 2: TGGTGGCTACGACGGGATT
B6: GGAUACU (DNA:RNA)
RNA: B1 RNA with C27A, G28U, C29A, G30C, G31U
DNA 1: CAATCTGAATTCCGGTCTCCC
DNA 2: TGGTGGCTACGACGGGATT
B7: GCAACCG (DNA:RNA)
RNA: B1 RNA with G26C, C27A, G28A, G30C
DNA 1: CAATCTGAATTCCGGTCTCCC
DNA 2: TGGTGGCTACGACGGGATT
B8: UAUAAGG (DNA:RNA)
RNA: B5 RNA with A25U, C28A, U29A, C30G, C31G
DNA 1: CAATCTGAATTCCGGTCTCCC
DNA 2: TGGTGGCTACGACGGGATT
B9: UCUUGCU (DNA:RNA)
RNA: B5 RNA with A25U, A26C, C28U, U29G, C31U
DNA 1: CAATCTGAATTCCGGTCTCCC
DNA 2: TGGTGGCTACGACGGGATT
B10: AAACGCG (DNA:RNA)
RNA: B5 RNA with U27A, U29G, C31G
DNA 1: CAATCTGAATTCCGGTCTCCC
DNA 2: TGGTGGCTACGACGGGATT
B11: GUGCAUC (DNA:RNA)
RNA: B5 RNA with A25G, A26U, U27G, U29A, C30U
DNA 1: CAATCTGAATTCCGGTCTCCC
DNA 2: TGGTGGCTACGACGGGATT
B12: AAGCAAA (DNA:RNA)
RNA: B5 RNA with U27G, U29A, C30A, C31A
DNA 1: CAATCTGAATTCCGGTCTCCC
DNA 2: TGGTGGCTACGACGGGATT
B13: GAGUCUU (DNA:RNA)
RNA: B1 RNA with G26A, C27G, G28U, G30U, G31U
DNA 1: CAATCTGAATTCCGGTCTCCC
DNA 2: TGGTGGCTACGACGGGATT
B14: AAGUAUU (DNA:RNA)
RNA: B5 RNA with U27G, C28U, U29A, C30U, C31U
DNA 1: CAATCTGAATTCCGGTCTCCC
DNA 2: TGGTGGCTACGACGGGATT
B15: GGGUAGU (DNA:RNA)
RNA: B1 RNA with C27G, G28U, C29A, G31U
DNA 1: CAATCTGAATTCCGGTCTCCC
DNA 2: TGGTGGCTACGACGGGATT
B16: UGACAGC (DNA:RNA)
RNA: B5 RNA with A25U, A26G, U27A, U29A, C30G
DNA 1: CAATCTGAATTCCGGTCTCCC
DNA 2: TGGTGGCTACGACGGGATT
B17: AACCCAC (DNA:RNA)
RNA: B5 RNA with U27C, U29C, C30A
DNA 1: CAATCTGAATTCCGGTCTCCC
DNA 2: TGGTGGCTACGACGGGATT
B18: ACUGUCG (DNA:RNA)
RNA: B5 RNA with A26C, C28G, C31G
DNA 1: CAATCTGAATTCCGGTCTCCC
DNA 2: TGGTGGCTACGACGGGATT
B19: GCCUGUC (DNA:RNA)
RNA: B1 RNA with G26C, G28U, C29G, G30U, G31C
DNA 1: CAATCTGAATTCCGGTCTCCC
DNA 2: TGGTGGCTACGACGGGATT
B20: ACUAUUU (DNA:RNA)
RNA: B5 RNA with A26C, C28A, C30U, C31U
DNA 1: CAATCTGAATTCCGGTCTCCC
DNA 2: TGGTGGCTACGACGGGATT

target: T1, RBFOX1 RRM; test: EMSA; HiTS-Eq, 1 nM pool, 10 min; buffer printed only for the single-RNA assays: 10 mM Tris pH 7.5, 150 mM NaCl, 3.4 mM EDTA, 0.001% NP-40, 30 C; conditions: tags: His6 N-terminal (pET28a); label: 5' 32P
Outline: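 Relative association constants, normalised to the cognate motif, were derived by comparing read counts of each RNA species with those of the control reaction. The RNA sequenced was the free fraction, separated by 8% native PAGE after a 10 min equilibration in 50 µL of 1 nM 5′-radiolabelled RNA (7 randomized nucleotides) with increasing concentrations of purified wild-type or mutant RbFox RRM.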

| Binder | binding signal |
| --- | --- |
| B1 | 0.0251 KA relative to UGCAUGU |
| B2 | 0.0283 KA relative to UGCAUGU |
| B3 | 0.0156 KA relative to UGCAUGU |
| B4 | 0.0104 KA relative to UGCAUGU |
| B5 | 0.00363 KA relative to UGCAUGU |
| B6 | 0.00938 KA relative to UGCAUGU |
| B7 | 0.00908 KA relative to UGCAUGU |
| B8 | 0.00507 KA relative to UGCAUGU |
| B9 | 0.0191 KA relative to UGCAUGU |
| B10 | 0.0023 KA relative to UGCAUGU |
| B11 | 0.0315 KA relative to UGCAUGU |
| B12 | 0.00128 KA relative to UGCAUGU |
| B13 | 0.0155 KA relative to UGCAUGU |
| B14 | 0.0026 KA relative to UGCAUGU |
| B15 | 0.0186 KA relative to UGCAUGU |
| B16 | 0.0137 KA relative to UGCAUGU |
| B17 | 0.00473 KA relative to UGCAUGU |
| B18 | 0.0107 KA relative to UGCAUGU |
| B19 | 0.0275 KA relative to UGCAUGU |
| B20 | 0.00183 KA relative to UGCAUGU |
